According to paper PMC5836133:
The list shows a part of the results. At the low end of the ranking, values are background and their order means little.
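Note: rank-based score ranging −0.5 to +0.5 with E above 0.45 taken as significant binding.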

What follows are sequences tested on T1, GST-NbGlk1(82-244) (assay: protein-binding microarray). Conditions: NbGlk1 is a Golden2-like transcription factor of Nicotiana benthamiana; high values mean tight binding; most listed sequences are background and not binding sites; double strand, one strand shown.
T1 sequence: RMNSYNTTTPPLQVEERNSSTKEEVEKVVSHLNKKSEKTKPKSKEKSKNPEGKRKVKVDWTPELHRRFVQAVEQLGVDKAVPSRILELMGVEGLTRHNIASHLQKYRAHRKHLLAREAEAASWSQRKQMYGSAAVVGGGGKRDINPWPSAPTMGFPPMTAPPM
Work on ATATCAGG yielded a binding signal of 0.305 E-score. For AAGGATCA, the binding signal was 0.0429 E-score. In the case of AGGTACTC, the binding signal is reported as -0.202 E-score. With ACGTCGAT the binding signal was 0.11 E-score. With AGTGTAGA the binding signal was 0.0376 E-score. Work on AATGACCT yielded a binding signal of -0.239 E-score. ACGCTAAC was tested, and the binding signal was -0.116 E-score. CAAAAGTA gave a binding signal of -0.0253 E-score. For AATGCTTC, the binding signal was -0.0248 E-score. Work on ACTCACAA yielded a binding signal of -0.0736 E-score. ACACGCGC showed a binding signal of -0.193 E-score. With AAACCTAG the binding signal was 0.0452 E-score. With AACAGAGG the binding signal was -0.232 E-score. ATCTACGG gave a binding signal of 0.195 E-score. ATCCGGCA gave a binding signal of 0.253 E-score. ACTTACTA was tested, and the binding signal was 0.0743 E-score. With AACTATGG the binding signal was -0.0971 E-score. ACCCTACC was tested, and the binding signal was -0.133 E-score. AATGATTA was tested, and the binding signal was 0.123 E-score. Work on AGCTGGGA yielded a binding signal of -0.0779 E-score. CAGACCTC gave a binding signal of -0.138 E-score. AGGTGACG was tested, and the binding signal was -0.0523 E-score. ACCACTTG gave a binding signal of -0.0825 E-score. AGTCCCCG showed a binding signal of -0.329 E-score. With AGGATAAC the binding signal was 0.0961 E-score. Work on AACGCCCA yielded a binding signal of -0.122 E-score. AATCCATC gave a binding signal of 0.367 E-score. Sequence AAGCACAA has a binding signal of -0.0466 E-score. AACCTGCC gave a binding signal of -0.21 E-score. AGGCAATA gave a binding signal of 0.0249 E-score. ATGGCCGA showed a binding signal of -0.187 E-score. ACCCTAAC gave a binding signal of -0.101 E-score. With AAATCGTG the binding signal was 0.365 E-score. ACAAGATA was tested, and the binding signal was 0.322 E-score. With AAAAGATC the binding signal was 0.301 E-score. Work on ATTACGTC yielded a binding signal of 0.277 E-score. ATGACCCA was tested, and the binding signal was -0.165 E-score. In the case of ACCAAACA, the binding signal is reported as -0.0748 E-score. AGCACTCG was tested, and the binding signal was -0.151 E-score. AGGCGACC gave a binding signal of -0.239 E-score. ATATGCCG gave a binding signal of 0.152 E-score. In the case of AGGTGCAC, the binding signal is reported as -0.196 E-score. AAACTACG showed a binding signal of 0.0766 E-score. With ACGCTGAT the binding signal was 0.235 E-score. Sequence AAAACCCG has a binding signal of 0.0568 E-score. CACCAATC was tested, and the binding signal was 0.0579 E-score. For AGCTGCAT, the binding signal was -0.213 E-score. AGTACCAC was tested, and the binding signal was -0.153 E-score. ATAAGCGA was tested, and the binding signal was 0.0772 E-score. Sequence AAAGCTCA has a binding signal of -0.115 E-score. In the case of AGTACATA, the binding signal is reported as 0.0676 E-score. Sequence ACGGGACC has a binding signal of -0.264 E-score. For AGCCTCAC, the binding signal was -0.133 E-score. ACTCGCTG gave a binding signal of -0.0819 E-score. In the case of AGGGAGAA, the binding signal is reported as -0.201 E-score. In the case of AGTCGCGG, the binding signal is reported as -0.0793 E-score. For AATAGCTG, the binding signal was -0.131 E-score. For ACATAAGG, the binding signal was -0.105 E-score. In the case of AAAATGCG, the binding signal is reported as 0.0705 E-score. For ATAGAGCC, the binding signal was -0.219 E-score. For CAACGTGG, the binding signal was -0.143 E-score. For AATTCTTA, the binding signal was 0.185 E-score. ACGCATAA was tested, and the binding signal was 0.00722 E-score. Work on AACGCGCT yielded a binding signal of -0.0927 E-score. Sequence ACCATAGA has a binding signal of 0.00772 E-score. ACGATCAT gave a binding signal of 0.116 E-score. In the case of AATACCTG, the binding signal is reported as 0.0297 E-score. Work on ATGGACTA yielded a binding signal of -0.0804 E-score. With AAGAATAA the binding signal was 0.165 E-score. In the case of ACACGCCG, the binding signal is reported as -0.13 E-score. Sequence AGCATTAT has a binding signal of 0.0451 E-score. With AGCTTAAT the binding signal was -0.0746 E-score. In the case of CACGTGTA, the binding signal is reported as 0.0674 E-score. With ATGATTCG the binding signal was 0.199 E-score. In the case of AGTTAGTA, the binding signal is reported as 0.157 E-score. AGTAAGGC gave a binding signal of -0.186 E-score. With AATACATT the binding signal was 0.142 E-score. Work on ACGTGTTC yielded a binding signal of -0.174 E-score. Sequence ACAGGGTC has a binding signal of -0.265 E-score. AGCAAACC was tested, and the binding signal was -0.0864 E-score. ACTACTTG was tested, and the binding signal was -0.0281 E-score. Work on AGTTTTTC yielded a binding signal of 0.0674 E-score. ATTGAGAC showed a binding signal of -0.00411 E-score. With ACTTATAT the binding signal was 0.0791 E-score. ATCGCCAT gave a binding signal of 0.0934 E-score. For AATCTACA, the binding signal was 0.401 E-score.
